In the supplement of paper PMC12217912:
Some of the results follow. Sequences were assembled here from the parent chain. Values near 0.05 are background.

B1: TEV protease; numbered along this chain (parent)
chain: MGESLFKGPRDYNPISSSICHLTNESDGHTTSLYGIGFGPFIITNKHLFRRNNGTLVVQSLHGVFKVKDTTTLQQHLVDGRDMIIIRMPKDFPPFPQKLKFREPQREERICLVTTNFQTKSMSSMVSDTSCTFPSGDGIFWKHWIQTKDGQCGSPLVSTRDGFIVGIHSASNFTNTNNYFTSVPKNFMELLTNQEAQQWVSGWRLNADSVLWGGHKVFMVKPEEPFQPVKEATQL

Variants of: B1
Experiment: raw area under fraction-flipped curve 0-4 h after induction (AUC4h, not background-subtracted), DNA-recorder readout of cleavage of the substrate (dimensionless); higher = more cleavage of the substrate by the protease variant
Details: temperature: 34 °C; time window: 0-4 h after rhamnose induction
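Note: Bxb1 expression induced with 0.2% (w/v) L-rhamnose at OD600 near 0.5, cultures sampled hourly, flipped fraction per protease–substrate barcode pair counted by paired-end Illumina sequencing.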

| Variant | area with substrate ENDYFQS | area with substrate ENFYFQS | area with substrate ENRYFQS | area with substrate ENSYFQS | area with substrate ENTYFQS | area with substrate ENMYFQS | area with substrate ENQYFQS | area with substrate ENPYFQS | area with substrate ENVYFQS | area with substrate ENEYFQS |
| --- | --- | --- | --- | --- | --- | --- | --- | --- | --- | --- |
| G153W | 0.0572 | 0.0468 | 0.0857 | 0.0586 | 0.0621 |  |  |  |  |  |
| Y34W |  | 0.062 |  |  | 0.0632 | 0.0725 | 0.0736 |  |  |  |
| Y34E | 0.0794 |  | 0.0575 |  | 0.0562 |  | 0.0481 | 0.0541 | 0.0641 |  |
| Y34K |  |  |  |  | 0.068 |  |  |  |  |  |
| P134K | 0.0618 |  |  | 0.06 | 0.082 | 0.0059 | 0.0667 |  | 0.0478 | 0.0591 |
| N186K | 0.0799 |  | 0.0578 |  |  |  | 0.0614 |  | 0.056 | 0.049 |
| Y179N |  |  |  | 0.0606 |  |  |  | 0.0565 |  | 0.081 |
| Y179W |  | 0.0575 |  | 0.0809 |  | 0.0514 | 0.0433 |  |  |  |
| T114D | 0.0485 | 0.0462 | 0.052 | 0.0533 |  | 0.08 |  |  |  | 0.0584 |
| Q97K |  | 0.0515 | 0.0583 | 0.0705 |  |  |  |  |  | 0.0476 |
| P9H |  | 0.0523 |  | 0.0647 |  | 0.0962 |  |  |  |  |
| V67Q |  | 0.0633 |  | 0.0693 |  |  | 0.0529 | 0.0721 |  | 0.0524 |
| M83P | 0.0609 |  | 0.0529 |  | 0.0538 |  |  |  | 0.0386 |  |
| N206A |  |  |  | 0.0765 |  |  |  |  |  |  |
| E223G |  |  |  |  |  | 0.0959 |  |  | 0.0865 |  |
| D91L |  |  |  |  |  | 0.0581 |  |  | 0.0494 |  |
| F117D | 0.061 | 0.0913 | 0.0598 |  |  | 0.0758 | 0.0522 |  | 0.0777 | 0.0496 |
| T174H | 0.0648 |  | 0.0563 |  | 0.0663 | 0.0468 |  |  | 0.0646 | 0.0553 |
| H76P | 0.0666 |  | 0.0465 | 0.0641 | 0.0358 | 0.0571 | 0.0611 |  | 0.0495 | 0.0749 |
| F187T | 0.0537 |  |  |  | 0.0611 | 0.0608 |  |  | 0.0342 |  |

| Variant | area with substrate ENDYFQS | area with substrate ENFYFQS | area with substrate ENRYFQS | area with substrate ENSYFQS | area with substrate ENTYFQS | area with substrate ENMYFQS | area with substrate ENQYFQS | area with substrate ENPYFQS | area with substrate ENVYFQS | area with substrate ENEYFQS |
| --- | --- | --- | --- | --- | --- | --- | --- | --- | --- | --- |
| E103F |  | 0.0615 | 0.0592 | 0.0445 |  |  | 0.0629 |  |  |  |
| V58Q | 0.0484 |  | 0.0507 | 0.0437 |  | 0.0499 | 0.0524 |  |  |  |
| V58T |  |  | 0.0547 | 0.0505 | 0.0774 |  | 0.0069 |  |  |  |
| N193D |  |  | 0.0737 | 0.0684 | 0.0691 |  | 0.0481 |  | 0.0781 |  |
| F173Q |  |  |  |  |  |  | 0.0578 |  | 0.0609 | 0.0537 |
| L73F |  |  | 0.0716 | 0.0686 | 0.0744 |  | 0.0561 |  |  | 0.0518 |
| A170M | 0.0243 |  | 0.0699 |  |  |  |  |  |  |  |
| D128P | 0.0601 |  | 0.0435 | 0.0518 |  | 0.11 | 0.0547 |  |  |  |
| G138C |  |  |  |  | 0.0321 |  |  |  |  |  |
| H143T | 0.0517 | 0.0608 | 0.0693 | 0.07 | 0.0653 | 0.0921 | 0.0618 | 0.0568 |  | 0.0615 |
| T159F | 0.093 | 0.0592 |  | 0.0779 |  |  | 0.0495 |  | 0.0651 |  |
| E195V |  |  |  |  | 0.0697 |  | 0.055 |  |  |  |
| N178T |  | 0.0602 | 0.0631 | 0.0655 |  |  | 0.0562 | 0.0814 |  | 0.0605 |
| N178W |  |  |  |  |  |  | 0.0495 |  |  | 0.0705 |
| N178F |  | 0.141 |  |  | 0.0876 | 0.19 |  |  | 0.185 |  |
| K7E | 0.0659 | 0.0606 |  |  |  |  | 0.0458 | 0.0592 |  |  |
| L211S |  |  |  | 0.0676 |  | 0.0637 |  |  |  |  |
| L5Y | 0.0567 | 0.0608 | 0.0683 | 0.05 |  |  |  | 0.0687 | 0.0823 | 0.0474 |
| K221A | 0.0705 |  |  | 0.0613 |  |  |  | 0.0844 | 0.0713 |  |

Same assay, conditions: temperature: 34 °C; time window: 0-4 h after rhamnose induction

| Variant | area with substrate ENIYFQS | area with substrate ENKYFQS | area with substrate ENNYFQS | area with substrate ENYYFQS | area with substrate ENHYFQS | area with substrate ENWYFQS | area with substrate ENGYFQS |
| --- | --- | --- | --- | --- | --- | --- | --- |
| P134K | 0.0999 | 0.0601 | 0.0485 |  |  |  |  |
| Y179N |  | 0.0535 |  | 0.0791 |  |  |  |
| Y179W | 0.0328 |  | 0.0534 |  | 0.0599 |  |  |
| T114D | 0.134 | 0.0552 | 0.0454 |  | 0.0606 |  |  |
| Q97K |  | 0.08 |  |  |  | 0.059 |  |
| P9H |  |  | 0.0946 |  | 0.0583 |  | 0.0558 |
| V67Q | 0.103 |  | 0.0455 |  | 0.0726 |  |  |
| M83P | 0.0754 | 0.0596 |  |  |  |  |  |
| N206A |  |  |  |  |  |  | 0.0828 |
| E223G |  |  |  |  | 0.0451 |  | 0.0685 |
| F117D |  | 0.0497 |  | 0.0716 | 0.004 |  |  |
| T174H | 0.0871 |  |  |  |  |  |  |
| H76P | 0.0598 |  | 0.057 |  |  | 0.0568 |  |
| F187T |  |  | 0.0503 | 0.0582 |  |  | 0.0721 |
| E103F |  | 0.0645 | 0.0654 | 0.0542 | 0.0802 |  |  |
| V58T |  |  |  |  |  |  | 0.0656 |

| Variant | area with substrate ENIYFQS | area with substrate ENKYFQS | area with substrate ENNYFQS | area with substrate ENYYFQS | area with substrate ENHYFQS | area with substrate ENWYFQS | area with substrate ENGYFQS |
| --- | --- | --- | --- | --- | --- | --- | --- |
| N193D |  |  | 0.0641 |  |  |  |  |
| F173Q |  | 0.0742 |  |  |  |  |  |
| L73F | 0.0606 |  | 0.055 | 0.0458 | 0.0508 |  | 0.0638 |
| A170M |  | 0.0561 | 0.0613 | 0.0667 |  |  | 0.0533 |
| D128P | 0.108 | 0.0607 |  | 0.059 |  |  |  |
| G138C |  |  |  | 0.0509 |  |  |  |
| H143T |  |  | 0.0614 |  |  | 0.0112 |  |
| T159F |  |  |  | 0.0614 |  |  |  |
| E195V |  |  |  |  |  |  | 0.0633 |
| N178T |  | 0.053 | 0.0629 |  | 0.0604 | 0.0508 | 0.0613 |
| N178W |  |  |  | 0.0551 |  |  |  |
| N178F |  |  |  |  | 0.0572 |  |  |
| K7E |  |  | 0.0418 |  |  |  | 0.0671 |
| L211S |  | 0.0542 |  |  |  |  |  |
| L5Y |  |  | 0.055 |  |  |  |  |
| K221A |  | 0.0514 | 0.0636 |  | 0.0632 |  |  |
